In the supplement of paper PMC3334620:
Whole data set: some 33,000 sequences, median “E-score (-0.5 to 0.5)” near -0.043, cut for the highest 2% near 0.37. This is one part of the list.

The sequences below were run against T1, Upc2 (UniProt Q12151) (assay: PBM E-score (8-mer binding enrichment) (E-score (-0.5 to 0.5)); higher = stronger / more preferred TF binding; most listed sequences are background and not binding sites). Settings: protein concentration: 200 nM; construct: GST-full length.
T1 sequence: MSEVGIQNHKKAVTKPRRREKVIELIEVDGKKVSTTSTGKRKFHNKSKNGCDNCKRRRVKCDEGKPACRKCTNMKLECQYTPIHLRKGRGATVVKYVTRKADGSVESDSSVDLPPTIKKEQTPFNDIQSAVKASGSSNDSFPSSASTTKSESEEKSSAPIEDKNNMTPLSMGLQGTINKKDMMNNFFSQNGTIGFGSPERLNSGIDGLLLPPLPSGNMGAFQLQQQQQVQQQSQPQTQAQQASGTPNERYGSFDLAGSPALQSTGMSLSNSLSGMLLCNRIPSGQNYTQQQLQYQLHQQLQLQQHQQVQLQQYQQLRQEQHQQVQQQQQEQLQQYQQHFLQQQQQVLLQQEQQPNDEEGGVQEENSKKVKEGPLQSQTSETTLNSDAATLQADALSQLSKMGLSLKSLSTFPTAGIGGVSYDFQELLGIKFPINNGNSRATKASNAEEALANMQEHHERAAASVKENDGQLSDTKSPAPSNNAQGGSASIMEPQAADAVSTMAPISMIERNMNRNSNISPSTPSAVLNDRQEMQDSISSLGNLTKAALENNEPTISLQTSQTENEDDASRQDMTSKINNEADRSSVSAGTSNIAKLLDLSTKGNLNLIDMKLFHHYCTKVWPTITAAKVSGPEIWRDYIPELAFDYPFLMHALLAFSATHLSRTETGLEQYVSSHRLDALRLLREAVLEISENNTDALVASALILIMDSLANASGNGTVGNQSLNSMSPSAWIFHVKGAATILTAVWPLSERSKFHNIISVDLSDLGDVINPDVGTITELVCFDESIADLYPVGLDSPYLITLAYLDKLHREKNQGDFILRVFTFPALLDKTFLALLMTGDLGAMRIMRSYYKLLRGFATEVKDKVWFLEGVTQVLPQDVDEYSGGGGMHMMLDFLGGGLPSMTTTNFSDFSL
In short: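 GST-tagged yeast TFs (full-length or DNA-binding domain) were made by PURExpress in vitro transcription/translation and applied at about 100-200 nM to universal all-10-mer Agilent arrays. The arrays were made double-stranded by primer extension, on fresh or once-stripped slides. Bound protein was detected with fluorescent anti-GST, and scans were normalised with masliner. Each ungapped eight-base word, pooled with its reverse complement, received an E-score (modified Wilcoxon-Mann-Whitney statistic) from the Universal PBM Analysis Suite.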

Row | Sequence | PBM E-score
1 | GGGGTAAA | -0.00107
2 | AGAAAGCT | -0.0199
3 | CCGCTAGA | -0.168
4 | GGGACTGA | -0.247
5 | CTGGATGA | -0.229
6 | AGGCATCA | -0.342
7 | CGAAGAGA | 0.145
8 | ACGCCCAG | -0.113
9 | CGCCGACC | -0.105
10 | CCGCACCC | -0.0947
11 | TCAGATAA | -0.0699
12 | AACAGTCC | -0.237
13 | AGATCGCA | 0.0548
14 | AGGAAGCG | 0.179
15 | ACGGACCT | 0.0403
16 | GGCGGGCA | -0.224
17 | CAGTGGAC | -0.22
18 | ATGCCTCA | -0.113
19 | CGGAGCAG | -0.0812
20 | GCTGGCGA | -0.0866
21 | TAGTCGAA | -0.0359
22 | AGTACGAA | 0.384
23 | CGCCAGCA | -0.169
24 | TATATGCA | -0.1
25 | GTAGTAGA | -0.0548

Row | Sequence | PBM E-score
26 | CAACAACA | -0.0959
27 | CCTGCATC | -0.139
28 | AATGCCAG | -0.16
29 | ATGCGTAG | -0.0488
30 | ACGATACT | 0.313
31 | CGGCGAGA | -0.00955
32 | ATGCCACC | -0.135
33 | CTACATAC | 0.073
34 | ATTATAGC | -0.0488
35 | GGTTTCTA | -0.107
36 | CTGTGTTA | 0.0604
37 | ATTATCCA | -0.0754
38 | GATTTAAC | 0.0216
39 | CTACGGCA | 0.0153
40 | GTCGTTCA | 0.467
41 | CCGGCCAA | -0.127
42 | ATAGTTAC | 0.0658
43 | ACAGGTCG | 0.0058
44 | AACCAACC | -0.127
45 | AATTGTGG | -0.112
46 | ATTAATCG | 0.18
47 | GGCTCTGA | -0.237
48 | GTGGGGCA | -0.058
49 | ATCACTTA | 0.0103
50 | CTGTAGGC | -0.264

Row | Sequence | PBM E-score
51 | TCTCATCA | -0.13
52 | CACGTTAC | 0.0193
53 | CTTACTTA | -0.119
54 | GGTGTAAA | -0.0925
55 | CTACACTA | -0.0243
56 | TGGTCCAA | -0.297
57 | CTAGGGAG | -0.131
58 | GACCTAAA | 0.251
59 | AGGTAGGA | -0.17
60 | GAAAGCAA | 0.154
61 | ACACGATA | 0.15
62 | AGCGTACG | 0.354
63 | AGGGTCAT | -0.145
64 | AACGTCGT | 0.38
65 | GTGTAGTA | 0.023
66 | CTGGCTGA | -0.179
67 | ACCTTAGC | -0.208
68 | CCGTAAGA | 0.21
69 | CTAGAACA | -0.0391
70 | AACCCCGA | -0.155
71 | TGAGCGAA | 0.259
72 | GGGCCCCC | -0.119
73 | CCCACCAA | 0.022
74 | AAGGCCCT | -0.147
75 | CTCAAAGC | -0.131

Row | Sequence | PBM E-score
76 | AGTCGCAA | 0.131
77 | ATTAATAG | -0.00044
78 | GAGAGCTC | -0.01
79 | AGATCCAG | -0.257
80 | ATCAGTTC | 0.0403
81 | AATCGCGT | 0.0506
82 | CTCCACTA | -0.0461
83 | AGTTGGAA | -0.0863
84 | AATCGGTA | 0.161
85 | TCACCTAA | -0.00358
86 | GAATGTGA | -0.0574
87 | CATTCGCA | 0.0275
88 | AAACGTCG | 0.342
89 | AATTATGT | -0.222
90 | GAACTGGC | -0.158
91 | CCGAATCG | 0.176
92 | AGACCACA | -0.146
93 | AGAAGAGC | -0.298
94 | ACTACGCG | 0.0466
95 | ATAGGGGC | -0.0743
96 | CCGTGAGC | -0.068
97 | ACCGTTCC | 0.324
98 | AGAGACGA | 0.0608
99 | GCAGTGGC | -0.132
100 | CACCAGTA | -0.144

Row | Sequence | PBM E-score
101 | AAACTGGA | 0.0104
102 | CATTACAA | -0.0174
103 | TCAACCGA | 0.18
104 | CAGTATGG | 0.00429
105 | CGATCGTC | 0.128
106 | CCACAGTC | -0.226
107 | CAGCGTAA | 0.144
108 | AAACATAT | 0.141
109 | CCCGTCCC | -0.151
110 | CGAGCATA | 0.175
111 | GTAACTGA | -0.0563
112 | CAAGGCTC | -0.273
113 | AAGTGCCA | -0.139
114 | GTTGTGGA | 0.0496
115 | CGAAAAAC | 0.138
116 | GGATGCAA | -0.0345
117 | ATCGCTCG | 0.165
118 | ACGATAAC | 0.321
119 | ACTACACT | -0.125
120 | ACTGGAAC | 0.129
121 | TTTATAAA | 0.138
122 | AGTCGATG | -0.00202
123 | AAGCCAGT | -0.0647
124 | ATGAGGTG | -0.132
125 | TGGACACA | -0.143

Row | Sequence | PBM E-score
126 | GCAGGGTA | -0.202
127 | AATCCCTG | -0.186
128 | AGCGTTGA | -0.00696
129 | GACGGTGC | 0.0569
130 | GTGGCCAC | -0.0982
131 | CGATGATC | 0.0749
132 | ATGTCACG | -0.0865
133 | ACTCGCGG | 0.083
134 | AGGGAGGC | -0.0336
135 | AAGACGAG | -0.00338
136 | GAGGCAAA | -0.198
137 | ATTATAAA | 0.142
138 | CCTAGCGA | -0.299
139 | CGGTTAAA | 0.214
140 | ACTGCATC | -0.05
141 | GAGGTTGA | -0.0567
142 | TTGAGCAA | 0.00299
143 | GCAGAGAC | -0.318
144 | GAGTACGC | -0.0301
145 | CAGACCAC | -0.182
146 | TACCGAGA | 0.137
147 | AAGCCCCG | -0.124
148 | AATTTGAC | 0.0401
149 | GACTCAGA | -0.181
150 | CTGGACAA | -0.106

Row | Sequence | PBM E-score
151 | CAACCCAG | -0.216
152 | ACCACCGA | -0.0106
153 | CGACAAAA | 0.188
154 | CCTCCTGC | -0.451
155 | AACCTTGG | -0.15
156 | CGCATTAA | 0.0259
157 | CCCTCACA | -0.164
158 | ACCATCTC | 0.00371
159 | AGTGCGAT | 0.0239
160 | TCTGCCCA | -0.195
161 | GGTTTTGA | -0.128
162 | GGTTCAGA | -0.186
163 | AGAGGACC | -0.0921
164 | CTTTTGGA | -0.147
165 | CCGATACC | -0.00432
166 | TCCAGAGA | -0.283
167 | TCAATAAA | 0.0497
168 | CTTTTCGA | -0.00354
169 | GTATCGAA | 0.142
170 | CGAACAAA | 0.183
171 | TATTCGCA | 0.086
172 | CCATATGA | -0.153
173 | ATAGAGGC | -0.0461
174 | ATTCAGGA | -0.0353
175 | CTTCACGA | -0.0872

Row | Sequence | PBM E-score
176 | AGTATCGC | 0.0702
177 | AAAGAACT | 0.123
178 | GCATGGTA | -0.0135
179 | GCACGCCA | -0.193
180 | ATTGTTCG | 0.231
181 | CAACCGAG | 0.219
182 | GCTCGAAA | 0.0199
183 | GCGGCGCC | 0.0908
184 | TCTCTAAA | -0.101
185 | GACCTCAA | -0.161
186 | CAGCGAAG | -0.248
187 | CCCACCGC | 0.048
188 | ATCTCCTG | -0.0597
189 | ACTAAGTC | -0.173
190 | TATAAAGA | -0.0656
191 | CCCGGCCC | -0.193
192 | ACTATCGC | 0.0323
193 | CTTCTTAC | 0.0375
194 | AAAGCTGT | -0.0179
195 | GCCAATAA | -0.0856
196 | CAGCCCAC | -0.0743
197 | ACTCTCGA | 0.0144
198 | AGCTAGGG | -0.268
199 | ACAGTCCG | -0.0351
200 | ACCCTATG | -0.102

Row | Sequence | PBM E-score
201 | CGTATTAA | 0.294
202 | GCGGGGCC | -0.0323
203 | AACAAAAT | -0.0992
204 | CAGGCTCC | -0.253
205 | AATGAACG | 0.346
206 | AATACGAG | 0.457
207 | AACCTACC | -0.1
208 | AACCATCC | -0.0924
209 | CTGGGGGA | -0.227
210 | CAATGGGG | -0.256
211 | CATAGTTC | -0.0682
212 | CGAACACC | 0.0867
213 | AGGAGGAC | -0.134
214 | CCGCTCTA | -0.0598
215 | ATTGGGCC | -0.0426
216 | CCCAGCGG | -0.0188
217 | CGGCATTA | 0.077
218 | GCATGGCC | -0.171
219 | GCCTTCCC | -0.232
